Assay results: US20250313546A1, “NUCLEIC ACID BINDERS” (UNIVERSITY OF STRATHCLYDE, priority 2022, published 2025)

Assays:
[1] = tested on: T. b. brucei Lister S427 (a drug-sensitive wild type); test: Resazurin-based (Alamar blue) drug sensitivity assay; details: for T.b. brucei Selectivity Indices (SI, IC50 (μM)/IC50 (μM)) Group / T.b. brucei Selectivity Index (SI, IC50 (μM)/IC50 (μM)), numeric value: cytotoxicity against HEK293 cells vs T.b. brucei; for IC50: Trypanosoma brucei, read-out: IC50 T.b. brucei
[2] = tested on: A. fumigatus TR34/L98H (F10017, an azole resistant strain); details: Aspergillus fumigatus, read-out: MIC99 A. fumigatus TR34/L98H
Method: The Minimum Inhibitory Concentration (MIC, at 99% inhibition) of the compounds was determined using the broth microdilution method as recommended by EUCAST (EUCAST Definitive Document E.DEF 9.3.2, Method for the determination of broth dilution minimum inhibitory concentrations of antifungal agents for conidia forming moulds and EUCAST Definitive Document E.DEF 7.3.2 Method for the determination of broth dilution minimum inhibitory concentrations of antifungal agents for yeasts).

[3] = tested on: T. congolense IL3000 (a drug sensitive wild type); test: Resazurin-based (Alamar blue) drug sensitivity assay; details: Trypanosoma congolense, read-out: IC50 T. congo
Method: A detailed description of the procedure for evaluating activity against trypanosomes, using an Alamar Blue (resazurin) assay, is described below.
The BSF T. congolense IL3000 and a clonal line, 6C3, adapted from IL3000 in vitro with diminazene aceturate (Merck), leading to a ˜10-fold resistance, were cultured in TCBSF3 medium without red blood cells (see Zheoat, A. M. et al., 2021, Pathogens (Basel, Switzerland), 10(2), 175). Dulbecco's minimum essential medium (MEM) was supplemented with 25 mM (4-(2-hydroxyethyl)-1-piperazineethanesulfonic acid) (HEPES), 26 mM NaHCO3, 5.6 mM Dd-glucose, 1 mM sodium pyruvate, 40 μM adenosine, 100 μM hypoxanthine, 16.5 μM thymidine, and 25 μM bathocuproinedisulfonic acid disodium salt. To this basal medium were added β-mercaptoethanol (0.0014% v/v), 1.6 mM glutamine, 100 units/mL penicillin/0.1 mg/mL streptomycin (Gibco), 20% goat serum (Gibco), and 5% Serum Plus (SAFC Bi-osciences) (see Coustou, V. et al., 2010, PLoS Negl. Trop. Dis., 4, e618 and Giordani, F. et al., J. Med. Chem., 2019, 62, 3021-3035). The BSF T. congolense IL3000 WT and its derived line, 6C3, were cultured at 34° C. in a humidified, 5% CO2 environment.
A resazurin-based (Alamar blue) drug sensitivity assay was used to assess and compare the activity of standard trypanocides in the different cell lines investigated (see Gould, M. K. et al., Anal. Biochem., 2008, 382, 87-93). Briefly, 23 doubling dilutions of the test compound of the invention, starting at 100 μM, and a compound-free control were prepared in 100 μL medium in a 96-well white plate (Greiner Bio-one, Frickenhausen, Germany). The cells were adjusted to 2×10^4 cells/mL for T. b. brucei and T. equiperdum; 4×10^4 cells/mL for T. evansi; and 5×10^5 cells/mL for T. congolense in the appropriate medium. 100 μL of the adjusted cells was then added to the wells containing drug dilutions and incubated for 48 h under respective culture condition. Thereafter, 20 μL of 125 mg/mL resazurin sodium dye was added, and the plate was incubated for a further 24 h. The resorufin fluorescence in each well of the plate was determined and used to calculate the Half maximal effective concentration (EC50) of the drug, as described in Carruthers, L. V. et al., Mol. Microbiol., 2021, 116, 564-588.

SMILES: CC(C)NC(=N)CCNC(=O)c1cc(NC(=O)c2cc(NC(=O)c3ccc(/C=C/c4cnc5ccccc5c4)cc3)cn2C)cn1C [Ia21, (E)-N-(3-imino-3-(isopropylamino)propyl)-1-methyl-4-(1-methyl-4-(4-(2-(quinolin-3-yl)vinyl)benzamido)-1H-pyrrole-2-carboxamido)-1H-pyrrole-2-carboxamide]
- T.b. brucei Selectivity Indices (SI, IC50 (μM)/IC50 (μM)) Group ([1]; Alkyl Amidines and NH Pyrroles): D (Group D: SI > 300)
- IC50 [1]: < 50 nM
- T.b. brucei Selectivity Index (SI, IC50 (μM)/IC50 (μM)), numeric value [1]: 472
- MIC99 [2]: 5 to 25 µg/mL (≈ 7.93 to 39.6 µM)
- IC50 [3]: 50 to 250 nM

SMILES: CN(C)c1ccc(/C=C/c2ccc(C(=O)Nc3cc(C(=O)Nc4c[nH]c(C(=O)NCCN5CCOCC5)c4)n(C)c3)cn2)cc1 [IIIb3, (E)-6-(4-(dimethylamino)styryl)-N-(1-methyl-5-((5-((2-morpholinoethyl)carbamoyl)-1H-pyrrol-3-yl)carbamoyl)-1H-pyrrol-3-yl)nicotinamide]
- MIC99 [2]: > 50 µg/mL

SMILES: [H]/N=C(\CCNC(=O)c1cc(NC(=O)c2cc(NC(=O)c3ccc(C=Cc4ccc(N(C)C)cc4)nc3)cn2C)cn1C)NCCCCCCCCC [Ia32, (E)-6-(4-(dimethylamino)styryl)-N-(5-((5-((3-imino-3-(nonylamino)propyl)carbamoyl)-1-methyl-1H-pyrrol-3-yl)carbamoyl)-1-methyl-1H-pyrrol-3-yl)nicotinamide]
- T.b. brucei Selectivity Indices (SI, IC50 (μM)/IC50 (μM)) Group ([1]; Alkyl Amidines and NH Pyrroles): B (Group B: 70 < SI <= 150)
- IC50 [1]: 50 to 250 nM
- T.b. brucei Selectivity Index (SI, IC50 (μM)/IC50 (μM)), numeric value [1]: 106
- MIC99 [2]: > 50 µg/mL

SMILES: C/N=C(\CCNC(=O)c1cc(NC(=O)c2cc(NC(=O)c3ccc(/C=C/c4ccc(N(C)C)cc4)nc3)cn2C)cn1C)NC [Ia8, 6-((E)-4-(dimethylamino)styryl)-N-(1-methyl-5-((1-methyl-5-(((E)-3-(methylamino)-3-(methylimino)propyl)carbamoyl)-1H-pyrrol-3-yl)carbamoyl)-1H-pyrrol-3-yl)nicotinamide]
- MIC99 [2]: 5 to 25 µg/mL (≈ 8.2 to 41 µM)

SMILES: COc1ccc(/C=C/c2ccc(C(=O)Nc3cc(C(=O)Nc4cc(C(=O)NCCC(=N)NC(C)C)n(C)c4)n(C)c3)cc2)cc1 [Ia18, (E)-N-(3-imino-3-(isopropylamino)propyl)-4-(4-(4-(4-methoxystyryl)benzamido)-1-methyl-1H-pyrrole-2-carboxamido)-1-methyl-1H-pyrrole-2-carboxamide]
- T.b. brucei Selectivity Indices (SI, IC50 (μM)/IC50 (μM)) Group ([1]; Alkyl Amidines and NH Pyrroles): B (Group B: 70 < SI <= 150)
- IC50 [1]: 250 to 1000 nM
- IC50 [3]: < 50 nM

SMILES: CCCCCCCCCNC(=N)CCNC(=O)c1cc(NC(=O)c2cc(NC(=O)c3ccc(/C=C/c4cnc5ccccc5c4)cc3)cn2C)cn1C [Ia36, (E)-N-(3-imino-3-(nonylamino)propyl)-1-methyl-4-(1-methyl-4-(4-(2-(quinolin-3-yl)vinyl)benzamido)-1H-pyrrole-2-carboxamido)-1H-pyrrole-2-carboxamide]
- IC50 [1]: 250 to 1000 nM
- IC50 [3]: 250 to 1000 nM

SMILES: [H]/N=C(\CCNC(=O)c1cc(NC(=O)c2cc(NC(=O)c3ccc(C=Cc4ccc(C#N)cc4)cc3)cn2C)cn1C)NCC [Ia16, (E)-4-(4-(4-cyanostyryl)benzamido)-N-(5-((3-(ethylamino)-3-iminopropyl)carbamoyl)-1-methyl-1H-pyrrol-3-yl)-1-methyl-1H-pyrrole-2-carboxamide]
- T.b. brucei Selectivity Indices (SI, IC50 (μM)/IC50 (μM)) Group ([1]; Alkyl Amidines and NH Pyrroles): C (Group C: 150 < SI <= 300)
- IC50 [1]: 250 to 1000 nM
- T.b. brucei Selectivity Index (SI, IC50 (μM)/IC50 (μM)), numeric value [1]: 164
- IC50 [3]: 50 to 250 nM

SMILES: COc1cccc(/C=C/c2ccc(C(=O)Nc3cc(C(=O)Nc4cc(C(=O)NCCC(=N)NC(C)C)n(C)c4)n(C)c3)cn2)c1 [Ia23, (E)-N-(5-((5-((3-imino-3-(isopropylamino)propyl)carbamoyl)-1-methyl-1H-pyrrol-3-yl)carbamoyl)-1-methyl-1H-pyrrol-3-yl)-6-(3-methoxystyryl)nicotinamide]
- IC50 [1]: > 1000 nM
- IC50 [3]: > 1000 nM

SMILES: Cn1cc(NC(=O)c2cc(NC(=O)c3ccc(/C=C/c4cnc5ccccc5c4)cc3)cn2C)cc1C(=O)NCCOCCOCCO [IVa7, (E)-N-(2-(2-(2-hydroxyethoxy)ethoxy)ethyl)-1-methyl-4-(1-methyl-4-(4-(2-(quinolin-3-yl)vinyl)benzamido)-1H-pyrrole-2-carboxamido)-1H-pyrrole-2-carboxamide]
- T.b. brucei Selectivity Indices (SI, IC50 (μM)/IC50 (μM)) Group ([1]; Amides): C (Group C: 1.5 < SI <= 3)
- IC50 [1]: > 1000 nM
- IC50 [3]: > 1000 nM

SMILES: CC/N=C(\N)CCNC(=O)c1cc(NC(=O)c2cc(NC(=O)c3ccc(/C=C/c4ccc5nonc5c4)cc3)cn2C)cn1C [Ia12, N—((Z)-3-amino-3-(ethylimino)propyl)-4-(4-(4-((E)-2-(benzo[c][1,2,5]oxadiazol-5-yl)vinyl)benzamido)-1-methyl-1H-pyrrole-2-carboxamido)-1-methyl-1H-pyrrole-2-carboxamide]
- T.b. brucei Selectivity Indices (SI, IC50 (μM)/IC50 (μM)) Group ([1]; Alkyl Amidines and NH Pyrroles): D (Group D: SI > 300)
- IC50 [1]: < 50 nM
- T.b. brucei Selectivity Index (SI, IC50 (μM)/IC50 (μM)), numeric value [1]: 730
- IC50 [3]: > 1000 nM

SMILES: [H]/N=C(\CCNC(=O)c1cc(NC(=O)c2cc(NC(=O)c3ccc(C=Cc4ccc5nonc5c4)cc3)cn2C)cn1C)NCCC1CCOCC1 [Ia45, (E)-4-(4-(2-(benzo[c][1,2,5]oxadiazol-5-yl)vinyl)benzamido)-N-(5-((3-imino-3-((2-(tetrahydro-2H-pyran-4-yl)ethyl)amino)propyl)carbamoyl)-1-methyl-1H-pyrrol-3-yl)-1-methyl-1H-pyrrole-2-carboxamide]
- T.b. brucei Selectivity Indices (SI, IC50 (μM)/IC50 (μM)) Group ([1]; Alkyl Amidines and NH Pyrroles): D (Group D: SI > 300)
- IC50 [1]: 50 to 250 nM
- T.b. brucei Selectivity Index (SI, IC50 (μM)/IC50 (μM)), numeric value [1]: 360
- IC50 [3]: 50 to 250 nM

SMILES: CN1CCN(C(=N)CCNC(=O)c2cc(NC(=O)c3cc(NC(=O)c4ccc(/C=C/c5cnc6ccccc6c5)cc4)cn3C)cn2C)CC1 [Ib3, (E)-N-(3-imino-3-(4-methylpiperazin-1-yl)propyl)-1-methyl-4-(1-methyl-4-(4-(2-(quinolin-3-yl)vinyl)benzamido)-1H-pyrrole-2-carboxamido)-1H-pyrrole-2-carboxamide]
- IC50 [1]: 50 to 250 nM
- IC50 [3]: 250 to 1000 nM

SMILES: CCCCCC[N+](C)(C)CCNC(=O)c1cc(NC(=O)c2cc(NC(=O)c3ccc(/C=C/c4cnc5ccccc5c4)cc3)cn2C)cn1C [Ic5, (E)-N,N-dimethyl-N-(2-(1-methyl-4-(1-methyl-4-(4-(2-(quinolin-3-yl)vinyl)benzamido)-1H-pyrrole-2-carboxamido)-1H-pyrrole-2-carboxamido)ethyl)hexan-1-aminium]
- T.b. brucei Selectivity Indices (SI, IC50 (μM)/IC50 (μM)) Group ([1]; Quaternary ammoniums): B (Group B: 40 < SI <= 80)
- IC50 [1]: 50 to 250 nM
- IC50 [3]: < 50 nM

SMILES: CCCC/N=C(\CCNC(=O)c1cc(NC(=O)c2cc(NC(=O)c3ccc(/C=C/c4ccc(N(C)C)cc4)nc3)cn2C)cn1C)NCCCC [Ia39, N-(5-((5-(((E)-3-(butylamino)-3-(butylimino)propyl)carbamoyl)-1-methyl-1H-pyrrol-3-yl)carbamoyl)-1-methyl-1H-pyrrol-3-yl)-6-((E)-4-(dimethylamino)styryl)nicotinamide]
- IC50 [1]: > 1000 nM
- IC50 [3]: > 1000 nM

SMILES: CCCC/N=C(\CCNC(=O)c1cc(NC(=O)c2cc(NC(=O)c3ccc(/C=C/c4cnc5ccccc5c4)cc3)cn2C)cn1C)NCCCC [Ia38, N—((E)-3-(butylamino)-3-(butylimino)propyl)-1-methyl-4-(1-methyl-4-(4-((E)-2-(quinolin-3-yl)vinyl)benzamido)-1H-pyrrole-2-carboxamido)-1H-pyrrole-2-carboxamide]
- IC50 [1]: 50 to 250 nM
- IC50 [3]: 50 to 250 nM

SMILES: Cn1cc(NC(=O)c2cc(NC(=O)c3ccc(/C=C/c4cnc5ccccc5c4)cc3)cn2C)cc1C(=O)NCCC(=N)NCCC1CCOCC1 [Ia44, (E)-N-(3-imino-3-((2-(tetrahydro-2H-pyran-4-yl)ethyl)amino)propyl)-1-methyl-4-(1-methyl-4-(4-(2-(quinolin-3-yl)vinyl)benzamido)-1H-pyrrole-2-carboxamido)-1H-pyrrole-2-carboxamide]
- IC50 [1]: 250 to 1000 nM
- IC50 [3]: 250 to 1000 nM

Converted amounts (≈) assume the structure as drawn.
